Data from patent US8282926B2, “CCR5-specific antibodies with HIV neutralizing activity that recognize a linear dodecapeptide that mimics a conformational epitope in the second extracellular loop of CCR5” (The United States of America, as Represented by the …, priority 2004, dated 2012).

Tested on: mAb 2D7
Experiment: Peptide preincubation with mAb 2D7 in fusion-inhibition assay
Format: cell-based, mouse
Details: 100-fold molar excess of peptide, PM1 cells; FIG. 5

Substance	effect of peptide preincubation on fusion inhibiting activity of mAb 2D7
E-W-Q-K-E-G-L-V-T-L-W-L-G-G-G-G-S-C (EWQKEGLVTLWLGGGGSC) [2D7-2SK]	significant reduction
F-C-A-L-D-G-D-F-G-W-L-A-P-A-C (FCALDGDFGWLAPAC) [MD23, reference compound]	did not block
